Laboratory results as given in patent US20230035169A1 (WUXI BIOLOGICS IRELAND, published 2023).

What was measured:
Human TGF-β1 = Human TGF-β1 (human, UniProt P01137 part only); assay: cell-based or functional assay
[1] = target: T1, Human PD-L1 on cells (W315-CHO-K1.hPro1.C11) (human, UniProt Q9NZQ7); assay: cell-based or functional assay
[2] = target: T2, Cynomolgus monkey PD-L1 on cells (W315-293F.cynoPro1.2A2) (cynomolgus monkey, UniProt G7PSE7 19-290); assay: FACS on cyno PD-L1 expressing 293F cells
T2 construct: also called cell surface cyno PD-L1
Method: (§1) MFI of the cells was measured by a flow cytometer and analyzed by FlowJo.

[3] = target: T3, Mouse PD-L1 on cells (W315-293F.mPro1.C1) (mouse, UniProt Q9EP73); assay: FACS on mouse PD-L1 expressing 293F cells
T3 construct: whole, on cells; also called cell surface mouse PD-L1
Method: as §1

[4] = target: T1, Human PD-L1 on cells …; assay: FACS on human PD-L1 expressing CHO-K1 cells
Method: After washing, the cells were incubated with PE-labeled goat anti-human IgG-Fc antibody (Jackson Immuno Research). Finally, the MFI of the cells was measured by a flow cytometer and analyzed by FlowJo.

[5] = target: T4, Cynomolgus monkey (cyno) PD-L1 ECD antigen His tagged (cynomolgus monkey, UniProt G7PSE7 19-238); assay: SPR (Biacore 8K), antibody captured on anti-human IgG Fc chip, PD-L1 as analyte, 1:1 model
T4 construct: Bought
Method: (§2) Antibody was captured on an anti-human IgG Fc antibody immobilized CM5 sensor chip (GE). Human or cyno PD-L1 at different concentrations were injected over the sensor chip at a flow rate of 30 μL/min for an association phase of 180 s, followed by 3600 s dissociation. […] The chip was regenerated by 10 mM glycine (pH 1.5) after each binding cycle.
(§3) The sensorgrams of blank surface and buffer channel were subtracted from the test sensorgrams. […] The experimental data was fitted by 1:1 model using Langmiur analysis. Molecular weight of 40 kDa was used to calculate the molar concentration of human, mouse and cyno PD-L1.

[6] = target: T5, Human PD-L1 extracellular domain (ECD) antigen His tagged (human, UniProt Q9NZQ7 part only); assay: as above
T5 construct: extracellular domain; Bought; Biotinylated when used as the detecting reagent in the dual target ELISA; also called human PD-L1 ECD protein; not shown: His tag
Method: as §2, §3

[7] = target: T6, Mouse PD-L1 ECD antigen His tagged (mouse, UniProt Q9EP73 part only); assay: SPR (Biacore 8K), antibody captured on anti-human IgG Fc chip, PD-L1 as analyte, 1:1 model, 0-300 s fitted
T6 construct: extracellular domain; Bought; not shown: His tag
Method: as §2, §3

Sequence of Human TGF-β1 (P01137 279-390 limits assumed): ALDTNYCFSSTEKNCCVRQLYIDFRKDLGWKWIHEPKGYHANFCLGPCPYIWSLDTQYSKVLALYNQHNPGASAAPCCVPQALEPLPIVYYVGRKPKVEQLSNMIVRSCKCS

TGF-β1 blockade IC50, SBE luciferase reporter gene assay (Human TGF-β1): 700 pM
hPD-1/PD-L1 signaling blockade IC50, NFAT luciferase reporter gene assay (PD-1 Jurkat cells with PD-L1 artificial APC) [1]: 280 pM
EC50 [2]: 630 pM
EC50 [3]: 710 pM
EC50 [4]: 140 pM
Kd [5]: 461 pM
koff [5]: 0.000465 s⁻¹
kon [5]: 1.01e+06 M⁻¹ s⁻¹
Kd [6]: 267 pM
koff [6]: 0.000307 s⁻¹
kon [6]: 1.15e+06 M⁻¹ s⁻¹
Kd [7]: 41900 pM
koff [7]: 0.0108 s⁻¹
kon [7]: 258000 M⁻¹ s⁻¹
B1: WT1126-U15T1.G1-1.uIgG1 (bispecific antibody)
chain: EVQLVESGGGLVQPGGSLRLSCAASGHFSNLAVNWFRQAPGKERELVAGILWSGGSTFYADSVKGRFTISRGNAENMLYLQMNSLRAEDTAVYYCNTGTNWGQGTLVTVSS[sequence of human IgG1 Fc not given]GGGSGGGGSGGGGSGGGGSIPPHVQKSVNNDMIVTDNNGAVKFPQLCKFCDVRFSTCDNQKSCMSNCSITSICEKPQEVCVAVWRKNDENITLETVCHDPKLPYHDFILEDAASPKCIMKEKKKPGETFFMCSCSSDECNDNIIFSEEYNTSNPD
notes: Anti-PD-L1 VHH-Fc (human IgG1) fused at the C-terminus of the Fc to the TGFbRII ECD, no light chain; also called WT1126-U15T1.G1.uIgG1; WT1126-U15T1.1.uIgG1
